This passage reports binding results from article PMC3196477.

The target in assay [1] is T1, myc-tagged full-length Nde1 (mouse) (UniProt Q9CZA6).
T1 sequence: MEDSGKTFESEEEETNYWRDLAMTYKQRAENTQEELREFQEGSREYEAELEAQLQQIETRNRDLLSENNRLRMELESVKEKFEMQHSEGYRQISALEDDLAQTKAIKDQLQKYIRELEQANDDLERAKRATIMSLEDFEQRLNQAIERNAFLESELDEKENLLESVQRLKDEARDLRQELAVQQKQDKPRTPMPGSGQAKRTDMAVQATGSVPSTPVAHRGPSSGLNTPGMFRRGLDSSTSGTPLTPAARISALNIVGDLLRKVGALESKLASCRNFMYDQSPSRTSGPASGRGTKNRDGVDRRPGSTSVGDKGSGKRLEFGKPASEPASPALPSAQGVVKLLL
The assay is described as follows: co-IP; 293T cells co-transfected; lysis in 150 mM NaCl, 50 mM Tris pH 7.5, 0.1% TX100, 1 mM DTT; immunoprecipitation with anti-myc 9E10 and protein A/G sepharose, immunoblot with anti-Flag, anti-EGFP or a Dmd antibody.

Assay [2] concerns the target T2, myc-tagged truncated Nde1 C1, aa232–344 (mouse) (UniProt Q9CZA6).
T2 sequence: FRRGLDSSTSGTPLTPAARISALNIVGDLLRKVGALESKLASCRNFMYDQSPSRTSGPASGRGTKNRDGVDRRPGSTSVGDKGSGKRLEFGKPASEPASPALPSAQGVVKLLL
The description is as above.

The target of assay [3] is T3, Nde1 (yeast two-hybrid bait) (mouse) (UniProt Q9CZA6).
T3 sequence: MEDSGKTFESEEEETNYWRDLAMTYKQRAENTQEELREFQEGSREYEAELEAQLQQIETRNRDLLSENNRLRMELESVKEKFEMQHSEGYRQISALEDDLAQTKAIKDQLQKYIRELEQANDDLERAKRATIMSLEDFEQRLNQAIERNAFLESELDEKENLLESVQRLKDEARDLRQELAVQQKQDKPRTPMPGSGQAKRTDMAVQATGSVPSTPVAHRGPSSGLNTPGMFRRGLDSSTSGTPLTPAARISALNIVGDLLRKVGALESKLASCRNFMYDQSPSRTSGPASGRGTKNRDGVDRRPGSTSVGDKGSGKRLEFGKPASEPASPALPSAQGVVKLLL
The assay can be described thus: two-hybrid; screen of a mouse E9.5–10.5 whole embryo yeast two-hybrid library for Nde1 associated proteins; performed as described in ref. 14.

The target of assay [4] is Flag tagged full-length Utrn (mouse) (UniProt E9Q6R7). The assay can be described thus: co-IP; 293T cells co-transfected; lysis in 150 mM NaCl, 50 mM Tris pH 7.5, 0.1% TX100, 1 mM DTT; immunoprecipitation with anti-Flag antibody and protein A/G sepharose, immunoblot with anti-EGFP. (In general: In western blotting, separated proteins are transferred to a membrane and probed.)

Assay [5] concerns the target T4, GST-Dmd C-terminal fusion protein (I3458-M3678) (mouse) (UniProt P11531).
T4 sequence: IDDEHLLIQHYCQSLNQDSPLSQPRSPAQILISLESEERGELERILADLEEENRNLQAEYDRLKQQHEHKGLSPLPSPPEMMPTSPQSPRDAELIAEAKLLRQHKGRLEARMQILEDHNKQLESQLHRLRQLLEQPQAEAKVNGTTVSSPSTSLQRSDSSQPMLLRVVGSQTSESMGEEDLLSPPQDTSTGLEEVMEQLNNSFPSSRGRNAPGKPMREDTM
The assay is described as follows: pull-down; GST-Dmd C-terminal fusion proteins purified from bacteria on glutathione-agarose, incubated with protein extractions from EGFP-Nde1 transfected 293T cells; immunoblot with anti-GFP; only the target purified.

No constants are given. Whether binding was seen depends on the method and setting. For part of these data: Binding seen in cells or lysates may run through a third protein. Some binding calls cover weakened binding; strength is not graded here. For part of these data: Where a sequence is shown, tags or fusion partners need not be part of it.

For the molecule “Full-length Flag-Dmd (from UniProt P11531 1-3678)”, the binding entry in assay [1] is “binds”.

As for “Flag tagged full-length Utrn (from UniProt E9Q6R7 1-3430)”, the binding entry in assay [1] and in assay [2] was “binds” throughout.

B1: Utrophin yeast two-hybrid clone, amino acids 3173 to 3311 (domain or fragment, UniProt E9Q6R7 3173-3311)
chain: EHYDPSQSPQLFHDDTHSRIEQYATRLAQMERTNGSFLTDSSSTTGSVEDEHALIQQYCQTLGGESPVSQPQSPAQILKSVEREERGELERIIADLEEEQRNLQVEYEQLKEQHLRRGLPVGSPPDSIVSPHHTSEDSE
Turning to B1, the binding entry in assay [3] is reported as “binds”.

B2: EGFP-tagged C-terminal fragment of Utrn, UtrnC (aa 3173–3311) (domain or fragment, UniProt E9Q6R7 3173-3311)
chain: EHYDPSQSPQLFHDDTHSRIEQYATRLAQMERTNGSFLTDSSSTTGSVEDEHALIQQYCQTLGGESPVSQPQSPAQILKSVEREERGELERIIADLEEEQRNLQVEYEQLKEQHLRRGLPVGSPPDSIVSPHHTSEDSE
Turning to B2, the binding result in assay [1] is “binds”.

B3: EGFP-tagged C-terminal fragment of Dmd, DmdC1 (aa 3458–3678) (domain or fragment, UniProt P11531 3458-3678)
chain: IDDEHLLIQHYCQSLNQDSPLSQPRSPAQILISLESEERGELERILADLEEENRNLQAEYDRLKQQHEHKGLSPLPSPPEMMPTSPQSPRDAELIAEAKLLRQHKGRLEARMQILEDHNKQLESQLHRLRQLLEQPQAEAKVNGTTVSSPSTSLQRSDSSQPMLLRVVGSQTSESMGEEDLLSPPQDTSTGLEEVMEQLNNSFPSSRGRNAPGKPMREDTM
B3: the binding entry in assay [1] was “binds”.

B4: GFP tagged-Nde1 (protein, UniProt Q9CZA6 1-344)
chain: MEDSGKTFESEEEETNYWRDLAMTYKQRAENTQEELREFQEGSREYEAELEAQLQQIETRNRDLLSENNRLRMELESVKEKFEMQHSEGYRQISALEDDLAQTKAIKDQLQKYIRELEQANDDLERAKRATIMSLEDFEQRLNQAIERNAFLESELDEKENLLESVQRLKDEARDLRQELAVQQKQDKPRTPMPGSGQAKRTDMAVQATGSVPSTPVAHRGPSSGLNTPGMFRRGLDSSTSGTPLTPAARISALNIVGDLLRKVGALESKLASCRNFMYDQSPSRTSGPASGRGTKNRDGVDRRPGSTSVGDKGSGKRLEFGKPASEPASPALPSAQGVVKLLL
B4: the binding result in assay [4] and in assay [5] was “binds” throughout.

B5: GFP tagged LIS1 (protein, UniProt P63005 1-410)
chain: MVLSQRQRDELNRAIADYLRSNGYEEAYSVFKKEAELDMNEELDKKYAGLLEKKWTSVIRLQKKVMELESKLNEAKEEFTSGGPLGQKRDPKEWIPRPPEKYALSGHRSPVTRVIFHPVFSVMVSASEDATIKVWDYETGDFERTLKGHTDSVQDISFDHSGKLLASCSADMTIKLWDFQGFECIRTMHGHDHNVSSVAIMPNGDHIVSASRDKTIKMWEVQTGYCVKTFTGHREWVRMVRPNQDGTLIASCSNDQTVRVWVVATKECKAELREHEHVVECISWAPESSYSSISEATGSETKKSGKPGPFLLSGSRDKTIKMWDVSTGMCLMTLVGHDNWVRGVLFHSGGKFILSCADDKTLRVWDYKNKRCMKTLNAHEHFVTSLDFHKTAPYVVTGSVDQTVKVWECR
Regarding B5, the binding entry in assay [4] is given as “no binding”.
